Among the data in paper PMC4613828 (PLoS Pathogens, 2015) are solubility in water values, retold here.

SMILES strings stand for the structures.

How the values of this data set were obtained: The crystal structure of CVA16 in complex with the uncoating inhibitor GPP3 was determined by crystallography (Materials and Methods, Fig 2 and Table 1). […] Diffraction data were collected from 15 crystals at room temperature in crystallization plates at the Diamond Light Source[9]. Data were scaled together, merged and the structure solved at 2.75 Å resolution by molecular replacement using the structure of the mature CVA16 virus. […] The surface area accessible to solvent, calculated by Areaimol[11], is 12.3 Å^2 for GPP3 in the VP1 pocket whereas for the sphingosine it is 11.8 Å^2. […] As expected, GPP3 binds with its pyridine ring close to the entrance of the pocket, with the carbonyl oxygen of the imidazole moiety hydrogen-bonding to the backbone nitrogen of residue Ile113, which is also the case for sphingosine, and with the phenoxy ring sandwiched between two hydrophobic residues (Phe135 and Tyr155) (Fig 2). This binding mode was also observed for EV71 in complex with the same compound[8], except that EV71 has a phenylalanine at position 155. The RMSD between EV71 crystal structure and CVA16 structure is 0.5Å for all aligned residues. Their sequence identity is ~80% in the capsid proteins.

In the case of `CCON=Cc1ccc(OCCC(C)CCN2CCN(c3ccncc3)C2=O)cc1` (stereo not shown) [GPP3], the solubility in water result is “rather insoluble in water”.
